This note sets out measurements from publication PMC5584178.

Results are given in words; binding and its absence hold for the method and conditions named. In cells and extracts the contact can be indirect. Some binding calls cover weakened binding; strength is not graded here. Sequences can lack the tags named with a protein.

The target of experiment [1] is T1, Sid4.T275AS278AcYFP (fission yeast) (UniProt O60187).
T1 sequence: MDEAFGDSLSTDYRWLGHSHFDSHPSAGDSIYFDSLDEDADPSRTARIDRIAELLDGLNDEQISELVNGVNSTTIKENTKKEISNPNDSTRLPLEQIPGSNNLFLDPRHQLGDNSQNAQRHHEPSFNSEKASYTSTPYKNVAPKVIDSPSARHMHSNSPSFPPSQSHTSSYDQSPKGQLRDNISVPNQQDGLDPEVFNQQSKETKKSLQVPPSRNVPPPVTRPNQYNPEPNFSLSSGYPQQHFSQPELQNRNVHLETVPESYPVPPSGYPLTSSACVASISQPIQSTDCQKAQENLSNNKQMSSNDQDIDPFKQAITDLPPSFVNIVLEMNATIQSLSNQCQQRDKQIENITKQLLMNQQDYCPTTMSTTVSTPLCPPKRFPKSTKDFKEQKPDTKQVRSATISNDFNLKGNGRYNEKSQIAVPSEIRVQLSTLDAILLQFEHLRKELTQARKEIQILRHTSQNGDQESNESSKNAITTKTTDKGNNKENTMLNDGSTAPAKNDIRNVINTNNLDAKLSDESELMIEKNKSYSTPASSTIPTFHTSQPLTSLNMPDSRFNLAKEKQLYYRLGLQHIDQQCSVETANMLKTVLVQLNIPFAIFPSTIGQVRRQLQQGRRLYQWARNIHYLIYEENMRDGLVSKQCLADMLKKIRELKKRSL
Put plainly: split reporter; BiFc with halves of Venus YFP fused to Cds1 and Sid4, fluorescence at the SPB of live S. pombe cells; dma1^+ and dma1.Δ strains.

Experiment [2] deals with T2, Sid4.cYFP (fission yeast) (UniProt O60187).
T2 sequence: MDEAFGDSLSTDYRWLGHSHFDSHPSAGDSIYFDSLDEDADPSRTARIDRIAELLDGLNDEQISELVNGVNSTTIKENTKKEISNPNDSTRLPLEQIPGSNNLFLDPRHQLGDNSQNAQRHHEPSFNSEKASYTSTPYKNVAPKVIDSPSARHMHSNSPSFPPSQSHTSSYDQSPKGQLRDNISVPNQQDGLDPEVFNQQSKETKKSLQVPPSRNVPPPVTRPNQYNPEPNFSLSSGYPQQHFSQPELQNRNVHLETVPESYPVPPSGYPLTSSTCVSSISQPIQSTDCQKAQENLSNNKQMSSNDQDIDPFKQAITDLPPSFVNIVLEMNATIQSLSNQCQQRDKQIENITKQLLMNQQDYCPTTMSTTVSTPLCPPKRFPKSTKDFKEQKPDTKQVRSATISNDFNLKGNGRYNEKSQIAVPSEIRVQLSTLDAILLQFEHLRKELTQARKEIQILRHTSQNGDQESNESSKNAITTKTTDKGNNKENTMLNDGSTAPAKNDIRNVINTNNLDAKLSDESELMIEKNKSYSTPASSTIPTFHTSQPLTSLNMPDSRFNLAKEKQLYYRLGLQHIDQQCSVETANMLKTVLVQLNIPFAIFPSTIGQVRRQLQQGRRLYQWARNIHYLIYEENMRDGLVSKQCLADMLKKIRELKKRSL
The experiment is described as above.

B1: Chk2^Cds1.nYFP (enzyme, UniProt Q09170 1-460)
chain: MEEPEEATQATQEAPLHVSQNIAKQVVNNENVFMKLVMTRMLDGKTEVIPLTTDVHNGFWRFGRHKSCEVVLNGPRVSNFHFEIYQGHRNDSDESENVVFLHDHSSNGTFLNFERLAKNSRTILSNGDEIRIGLGVPKDEISFLCQVPVKHSRDSQKNMIKSENSHYEIIRTLGSGTFAVVKLAVEVNSGKWYAIKIINKRKILLTSSEKRATEMFQREIDILKSLHHPGVVQCHEIFENDDELFIVMEYVEGGDLMDFLIANGSIDEQDCKPLLKQLLETLLHLHKQGVTHRDIKPENILITNDFHLKISDFGLAKVIHGTGTFLETFCGTMGYLAPEVLKSKNVNLDGGYDDKVDIWSLGCVLYVMLTASIPFASSSQAKCIELISKGAYPIEPLLENEISEEGIDLINRMLEINPEKRISESEALQHPWFYTVSTHEHRTPPSSSEHEATEQLNSSS
As for B1, the binding entry is given as “no binding” in experiment [1] and “binds” in experiment [2].
